Data reported in PMC4336329 (PLoS ONE, 2015).
Screen size: about 310,000 compounds; about 14,000 (4.5%) showed an effect of 50% or more. Effects have a minus sign here. The list shows a part of the results.

target: human ether-à-go-go-related gene (hERG) potassium channel (human, UniProt Q12809); assay: primary screen, population patch clamp on CHO cells stably expressing hERG
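Also: peak tail current of the secondary pulse compared with the same well before compound.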

Chain of human ether-à-go-go-related gene (hERG) potassium channel (Q12809 whole entry, looked up): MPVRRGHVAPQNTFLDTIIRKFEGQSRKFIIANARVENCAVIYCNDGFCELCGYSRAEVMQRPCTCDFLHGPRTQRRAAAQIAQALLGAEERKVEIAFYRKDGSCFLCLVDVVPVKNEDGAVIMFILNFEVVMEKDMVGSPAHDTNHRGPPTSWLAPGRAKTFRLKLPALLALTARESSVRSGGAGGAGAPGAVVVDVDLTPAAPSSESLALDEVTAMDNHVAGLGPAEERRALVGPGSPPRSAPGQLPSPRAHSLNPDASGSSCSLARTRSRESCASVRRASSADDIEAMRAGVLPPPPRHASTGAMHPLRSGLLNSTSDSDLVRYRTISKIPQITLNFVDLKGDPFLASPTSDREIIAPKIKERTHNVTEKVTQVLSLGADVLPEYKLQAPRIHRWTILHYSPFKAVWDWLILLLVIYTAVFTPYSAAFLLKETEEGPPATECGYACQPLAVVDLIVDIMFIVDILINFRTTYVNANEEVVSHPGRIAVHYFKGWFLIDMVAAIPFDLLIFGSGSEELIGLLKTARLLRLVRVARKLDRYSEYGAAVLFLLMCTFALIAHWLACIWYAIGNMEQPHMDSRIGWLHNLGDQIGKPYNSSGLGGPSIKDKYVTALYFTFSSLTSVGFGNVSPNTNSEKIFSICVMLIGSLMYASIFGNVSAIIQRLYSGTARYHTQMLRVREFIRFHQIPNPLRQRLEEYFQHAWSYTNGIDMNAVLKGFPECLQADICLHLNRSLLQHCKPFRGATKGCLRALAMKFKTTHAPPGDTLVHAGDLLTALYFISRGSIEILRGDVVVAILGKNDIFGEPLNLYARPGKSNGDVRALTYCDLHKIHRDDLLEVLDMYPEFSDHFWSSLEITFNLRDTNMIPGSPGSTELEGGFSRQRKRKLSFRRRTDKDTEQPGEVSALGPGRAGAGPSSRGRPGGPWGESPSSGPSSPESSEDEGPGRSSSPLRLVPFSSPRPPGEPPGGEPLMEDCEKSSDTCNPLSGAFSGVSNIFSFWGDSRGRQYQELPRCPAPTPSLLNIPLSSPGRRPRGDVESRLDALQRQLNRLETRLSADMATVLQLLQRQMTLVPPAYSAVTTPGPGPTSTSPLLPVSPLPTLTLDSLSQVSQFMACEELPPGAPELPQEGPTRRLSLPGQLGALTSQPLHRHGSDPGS

| SMILES | hERG current change (%, negative = inhibition) at 10uM [%] |
| --- | --- |
| Cc1ccc(/C=N/NC(=O)c2cc(C3CC3)nc3ccccc23)o1 | 6.16 |
| C[C@]12C=CC(=O)C=C1CCC1C3CC[C@](O)(C(=O)CO)[C@@]3(C)CC3OC312 (stereo partly drawn) | 11.5 |
| Cc1cc(NC(=O)CSc2cc(Cl)ccc2Cl)n(-c2ccccc2)n1 | -20.2 |
| COC(=O)c1ccc(C(=O)NCCCCO)cc1 | 20 |
| CCC(=N\NC(=O)COc1ccccc1OC)/C(CC)=N/NC(=O)COc1ccccc1OC | 8.06 |
| O=C(NCc1ccco1)c1cc(C(=O)C2CCCCC2)c[nH]1 | 15.9 |
| CS(=O)(=O)c1cccc(C(=O)N(CCc2ccccc2)Cc2cccs2)c1 | -48.6 |
| N#C/C(=C/C=C/c1ccccc1)C(=O)Nc1ccccc1 | 2.44 |
| Cc1ccsc1C(C(=O)NC1CCCCC1)N(C(=O)c1csnn1)C1CC1 (stereo not drawn) | -4.54 |
| Cc1ccc(O)c(-c2cc(C(F)(F)C(F)F)nc(-c3ccccc3)n2)c1 | 8.38 |
| CCCN(CCC)c1cc(Cl)nc(N)n1 | 7.49 |
| C[C@@H](NC(=O)OC(C)(C)C)C(=O)NCC1CCC(C(=O)N[C@@H](Cc2ccccc2)C(=O)O)CC1 (stereo partly drawn) | 10.5 |
| Cc1ccc(C(=O)NCc2cccnc2)cc1S(=O)(=O)N1CCCCCC1 | -65.7 |
| O=C1/C(=C/c2ccncc2)N=C2CCCCCN12 | 0.168 |
| Cc1ccc(C)c(SCC(=O)OCC(=O)c2ccco2)c1 | 8.67 |
| O=S(=O)(c1ccccc1)N1CCC2(CC1)CO2 | -2.52 |
| Cc1cc(C)c(NC(=O)COC(=O)c2cccc3c2C(=O)c2ccccc2C3=O)c(C)c1 | 11.4 |
| CCCn1c(SC(C)C(=O)NCC2CCCO2)nc2sc(CC)cc2c1=O (stereo not drawn) | -34.1 |
| CC1CCCCC1NCC(=O)NCc1ccc(F)cc1.O=C(O)C(=O)O (stereo not drawn) | -8.33 |
| COc1ccc(C2=CC(c3ccc(Cl)cc3)n3cnnc3N2)cc1OC (stereo not drawn) | -52 |
| COc1ccc(/C=N/Nc2cc(C)nc3ccc(Br)cc23)cc1 | -35.1 |
| CC(=O)N1CCN(c2ccc(NC(=S)NC(=O)c3ccc(C)c([N+](=O)[O-])c3)cc2)CC1 | -34.5 |

| SMILES | hERG current change (%, negative = inhibition) at 10uM [%] |
| --- | --- |
| COc1cccc2sc(N(C)c3ccccc3)nc12 | -3.98 |
| O=C(CCC(=O)NNC(=O)Cc1ccccc1)NCc1ccccc1 | -12.9 |
| O=C(NCCc1ccccc1)c1n[nH]c(=O)c2ccccc12 | 12.8 |
| CCO[C@@H]1OC(C(=O)NC2CC2)=C[C@H](c2coc3ccccc3c2=O)[C@H]1CCCO | -9.07 |
| O=C(NC(Cc1ccc(O)cc1)C(=O)O)/C(=C/c1ccccc1)NC(=O)c1ccccc1 (stereo not drawn) | 4.33 |
| O=C1c2ccccc2-c2c1nc1c([n+]2[O-])CCCC1 | -2.6 |
| COc1ccc2nc(NC(=O)CSc3nc(C)cc(C)n3)sc2c1 | -32.3 |
| COc1ccc(C(=O)OCC(=O)Nc2c(C)cccc2C)cc1 | 17.4 |
| O=C(O)c1ccc(Cl)c(S(=O)(=O)NC(Cc2ccccc2)C(=O)O)c1 (stereo not drawn) | 17.6 |
| CC(=O)NC(=O)COC(=O)/C=C/c1c(C)nn(Cc2c(Cl)cccc2Cl)c1Cl | -2.82 |
| CC1(C)N=C(N)NC(Nc2cccc(Br)c2)=N1 | 4.04 |
| COc1ccc2nc(N3CCCC(C(=O)NCCCN4C(C)CCCC4C)C3)sc2c1 (stereo not drawn) | -34.1 |
| Cc1cc(NS(=O)(=O)c2ccc(C(C)C)cc2)no1 | -3.92 |
| COc1ccc(-n2c(Cc3cc(=O)[nH]c(=O)[nH]3)nnc2SCC(=O)NC2CCCC2)cc1 | 21.7 |
| COc1ccc(CNc2nn[nH]n2)cc1OC | 13.5 |
| CC(C)(C)c1ccc(C(CC(=O)O)NS(=O)(=O)Cc2ccccc2)cc1 (stereo not drawn) | 18.6 |
| CC(=O)c1ccc(S(=O)(=O)N2CCCc3ccccc32)cc1 | 7.65 |
| COc1cc(-n2c(-c3ccccc3)n[nH]c2=S)c(OC)cc1Cl | 15.4 |
| Cc1cc(C)c(S(=O)(=O)c2cccc(Br)c2C)c(Cl)n1 | 9.54 |
| O=C(CSc1ccc2nnc(-c3ccncc3)n2n1)NCC1CCCO1 (stereo not drawn) | 11 |
| CCc1cccc(NC(=O)c2ccc(Cn3c(=O)[nH]c4ccsc4c3=O)cc2)c1 | 14.2 |
| O=C(NCCCN1CCOCC1)c1cccc(S(=O)(=O)N2CCc3ccccc3C2)c1 | -17 |

| SMILES | hERG current change (%, negative = inhibition) at 10uM [%] |
| --- | --- |
| CN1OCC2Cn3c(nc4ccccc43)C21 (stereo not drawn) | 23.6 |
| O=C(CSc1nc2ccc(Cl)cc2o1)NCc1ccc2c(c1)OCO2 | 10 |
| CC(=O)Nc1ccc(S(=O)(=O)NCc2ccc(C(=O)NCc3ccc4c(c3)OCO4)cc2)cc1 | 4.58 |
| CCNC(=S)Nc1c(C)n(C)n(-c2ccccc2)c1=O | -0.403 |
| O=C(CSc1nnc(CNc2ccc(F)cc2)n1Cc1ccccc1)NCc1ccco1 | -0.992 |
| COc1cc(CN2C(=S)NC(C)(C)CC2(C)O)cc(OC)c1 (stereo not drawn) | 7.64 |
| COCCNC(=O)Cn1c(=O)n(CCCCCC(=O)NCc2ccc3c(c2)OCO3)c(=O)c2sccc21 | 1.89 |
| Cc1cccc(OCCC(=O)OCc2csc(CC(=O)Nc3ccccc3C)n2)c1 | -0.874 |
| N#Cc1c(-c2ccccc2)cc(-c2ccccc2)nc1Br | 1.3 |
| O=C(O)CCCC(=O)Nc1ccc(Br)cc1 | 22.4 |
| Cc1ccc(C)c(SCC(=O)Nc2ccc(C)c(S(=O)(=O)N3CCOCC3)c2)c1 | -13.4 |
| CCCCN(c1ccccc1)S(=O)(=O)c1cccc2cccnc12 | -19.8 |
| Cc1cc(C)n2c(SC/C(O)=C(\C#N)c3nc4ccccc4[nH]3)nnc2n1 | -10.1 |
| CC(C)Cc1n[nH]c(=O)c2c1nnn2Cc1ccccc1F | -11.9 |
| O=C(O)c1ccc(COc2ccc3c(c2)CCC3)cc1 | 11.4 |
| COc1ccccc1-n1c(CNC(=O)c2ccco2)nnc1SCC(=O)Nc1cc(C)ccc1C | -14.3 |
| CCOC(=O)C1=C2SCCN2C(=O)C(C#N)C1(C)C (stereo not drawn) | 7.34 |
| CC1CC(C)CN(CCCNC(=O)c2csc3c2CCCCC3)C1 (stereo not drawn) | -61.2 |
| O=C(NNC(=O)c1ccccc1-n1cccc1)c1ccc(Cl)cc1 | 1.14 |
| Cn1cc(CNCCCn2ncc3ccccc32)c(-c2ccccc2F)n1 | -36.3 |
| COc1ccc(C(=O)c2cnc3ccccc3c2-c2ccccc2)cc1 | -9.47 |
| CCN(C(=O)Cc1ccccc1OC)c1nnc(-c2ccncc2)s1 | -18 |

| SMILES | hERG current change (%, negative = inhibition) at 10uM [%] |
| --- | --- |
| Cn1cccc1C(=O)OCC(=O)NCc1ccc2c(c1)OCO2 | -10.9 |
| COCCNC(=O)CN(Cc1ccco1)C(=O)CCC(=O)Nc1nccs1 | -3.49 |
| CCOc1ccc(NC(=O)CSc2nnc(C3CC3)n2C)cc1S(=O)(=O)N1CCCCC1 | -32.9 |
| COCCn1c(=S)[nH]c2cc(C(=O)NCCc3ccccc3)ccc2c1=O | -2.2 |
| CCCN(CCC)CCCNC(=O)c1cn(-c2ccc(OC)cc2)c(=O)c2ccccc12 | -48 |
| COc1ccc(CCn2c(=N)c(C(=O)NCCN3CCOCC3)cc3c(=O)n4ccccc4nc32)cc1OC | -32.5 |
| O=C(N=Nc1c(O)n(Cc2ccccc2)c2ccccc12)c1ccc(O)cc1 | -29.3 |
| CCN(CC)N=Nc1ccc(S(N)(=O)=O)cc1 | 31 |
| COc1ccc2ccccc2c1CNc1nnnn1C | 17.9 |
| Cc1ccc(S(=O)(=O)n2cnc3ccccc32)cc1[N+](=O)[O-] | 15.3 |
| O=C(Cn1c(=O)oc2cc(S(=O)(=O)N3CCCC3)ccc21)N1CCN(c2ccccn2)CC1 | 5.14 |
| O=c1cc(-c2ccc(Cl)cc2)nc(N2CCN(c3ccccc3)CC2)[nH]1 | 15 |
| O=C(Nc1cccc(S(=O)(=O)NCc2ccco2)c1)c1cc(-c2ccccc2)nc2ccccc12 | 0.601 |
| COc1cc(OC)nc(-n2ncc(Br)c(Br)c2=O)n1 | -6.15 |
| N#Cc1c(/N=C/c2cc3ccccc3s2)sc2c1CCC2 | 18.7 |
| COCCCNC(=O)c1nc2ccccc2c(=O)n1NC(=O)Nc1c(Cl)cccc1Cl | 14.2 |
| O=C(Nc1ccc(Cl)cc1)OCc1cn(-c2ccccc2)nn1 | 10.8 |
| CCn1ccnc1CN(C)C(=O)c1cc(COc2ccc(Cl)cc2OC)on1 | -12.3 |
| O=C(N/N=C/c1ccc2c(c1)OCO2)c1sc2cc(Cl)ccc2c1Cl | -11.1 |
| Cc1ccccc1N1CCN(C2CCCN(C(=O)CN3CCCC3=O)C2)CC1 (stereo not drawn) | 5.78 |
| N#Cc1c(C(F)(F)F)cc(-c2ccccc2)nc1SCc1nc(N)nc(N2CCOCC2)n1 | -3.22 |
